This note sets out measurements from PubChem BioAssay AID2060498 (Molecular Pharmacology Branch, DTP, NCI, 2025).

Each structure is given as a SMILES string. The source holds more than one record for some entries. They are shown here; other results are not. There may be further records. The records of an entry repeat one measurement across runs, samples, wells, individuals or studies.

The test system of this assay is 171881-019-R-J1-PDC tumor spheroids, viability. As to the kind of experiment: Anticancer human tumor 171881-019-R-J1-PDC patient-derived invasive breast carcinoma cell line growth inhibition [GQUAD]. Conditions: stronger effect = lower value, spheroids with HUVEC and MSC. The text has this: DNA G-quadruplex Stabilizer Agents in Combinations in Complex Spheroids
A high-throughput screen of multi-cell type tumor spheroids was designed to identify active combinations of DNA G-quadruplex stabilizer agents and targeted small molecules. Complex spheroids include a stromal component modeled by human endothelial cells (HUVEC) and fibroblasts modeled by human mesenchymal stem cells (MSCs). The concentration ranges selected for each drug and investigational agent were based upon clinically achievable concentrations if the clinical Cmax of the agent was known.
Compounds. The drugs and investigational agents: pidnarulex (CX-5461; NSC782164), APTO-253 (NSC789042), BRACO-19 (NSC847499), peposertib (NSC802822), ceralasertib (NSC780249), elimusertib (NSC800525), camonsertib (NSC841442), AZD-1390 (NSC803789), olaparib (NSC753686), talazoparib (NSC767125), ART-558 (NSC835418), sotorasib (NSC818433), MRTX-1133 (NSC836407), SN-38 (NSC673596), topotecan (NSC609699), etoposide (NSC141540), doxorubicin (NSC123127), gemcitabine (NSC613327), 5-fluorouracil (NSC19893), paclitaxel (NSC125973), vemurafenib (NSC761431), panobinostat (NSC761190), R-306465 (JNJ-16241199; NSC773264), adavosertib (NSC754352), TP-3654 (NSC805149), carboplatin (NSC241240), KSQ-4279 (NSC840948), and staurosporine (NSC755774) were obtained from the National Cancer Institute (NCI) Developmental Therapeutics Program Chemical Repository (34). The FDA-approved anticancer drug set is available from the NCI Developmental Therapeutics Program. […] The stock solutions were prepared in dimethyl sulfoxide (DMSO, Sigma-Aldrich, St. Louis, MO, cat. D2650) at 800-fold the tested concentration and stored at -70 degrees C prior to their use. All drugs and investigational agents were tested over a range starting from a high concentration at or near the clinical Cmax and decreasing in half-log increments. If the clinical Cmax for an agent had not been determined, the highest concentration tested was 10 microM.
2.3 Cell Culture. All cells were maintained in an incubator at 37 degrees C and 5% CO2 with 95% humidity. The PDC lines were cultured according to standard operating procedures established by the NCI PDMR. All PDCs were thawed and cultured in Matrigel-coated flasks prepared with a working solution of 1X Ham's F-12 nutrient mix, without supplementation (Invitrogen, cat. 11765054), 100 U/mL penicillin-streptomycin (Invitrogen, cat. 15140122), and 2.5% Matrigel (Corning Inc., cat. 354248) for the first three passages. […]
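Also: spheroids exposed to compounds for 7 days.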

Usually viability, T/C stands for the result in the treated group divided by that in the control group, in per cent. As to `Cc1[nH]c2ccc(F)cc2c1-c1nc2c3cccnc3c3ncccc3c2[nH]1`, the viability, T/C reads like this: (compound alone 0.316 µM) 96.6, 94.7, 98.3, 101, 107, 102, 98.1, 97.4, 84.9, 69.7, 83.6, 78.2%; (compound alone 1 µM) 89.6, 83.9, 85, 90.5, 86, 92.2, 78.8, 83.7, 70.7, 60.4, 66.3, 61.6%; (compound alone 3.16 µM) 31, 30.3, 19.5, 22, 36, 25.2, 23.7, 29.2, 8.94, 5.7, 7.31, 6.31%.
Regarding `CN(C)c1ccc(Nc2c3ccc(NC(=O)CCN4CCCC4)cc3nc3cc(NC(=O)CCN4CCCC4)ccc23)cc1`, under “compound alone 0.316 µM”, the viability, T/C is 74, 44.3, 85.4, 77.4, 85.7, 88.6, 41.4, 45.8, 86.2, 51.7, 77.1, 80.8%.
